Among all 75,000 compounds or so, about 15 (0.02%) were called active. The shares of active, inactive and inconclusive entries below differ from those in the screen. Calls come from the whole dose curve; as a rule, active = well fitted inhibition curve with a large enough effect in the main read-out, with a control signal flat (not every such curve was filed as active); inconclusive = small, poorly fitted or top-dose-only effect, or a change in a side signal; inactive = flat fitted curve, though single readings scatter. Potencies beside an inconclusive call are fits to weak or partial responses and may not hold up. “Side channel” marks fits to a control or component signal instead of the main read-out.
molecular target: Caspase-7 (Homo sapiens) (UniProt P55210); test: qHTS Assay for Allosteric/Competitive Inhibitors of Caspase-7; conditions: recombinant caspase-7, Ac-DEVD-AFC fluorescence rate; series mostly up to 57.5 µM; for activity change, negative = inhibition: % of control where 0% means no effect
Chain of UniProt P55210 (P55210 whole entry, looked up): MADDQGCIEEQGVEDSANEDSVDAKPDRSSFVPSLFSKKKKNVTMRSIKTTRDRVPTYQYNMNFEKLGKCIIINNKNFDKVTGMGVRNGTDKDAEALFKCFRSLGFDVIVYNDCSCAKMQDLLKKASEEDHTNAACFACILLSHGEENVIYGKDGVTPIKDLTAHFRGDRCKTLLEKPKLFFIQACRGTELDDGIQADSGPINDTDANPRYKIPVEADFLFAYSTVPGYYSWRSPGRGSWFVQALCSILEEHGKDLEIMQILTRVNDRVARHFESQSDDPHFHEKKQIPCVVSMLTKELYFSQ
From the text: NIH Molecular Libraries Screening Centers Network [MLSCN]
NIH Chemical Genomics Center [NCGC]
PI Name: Dr. James Wells,
Dr. Enrique Perez-Paya, Dr.Janice Williams, Dr. Dennis Wolan, a person
The caspases (Cysteine Aspartyl Protease) comprise a related family of 14 dimeric proteases that are critical mediators of apoptosis (programmed cell death) and inflammation. The caspases represent an important class of drug targets for stroke, ischemia, cancer and inflammatory diseases. […] One goal of this project was to identify compounds that act as allosteric inhibitors via stabilizing the procaspase form of the enzyme. Previous work in Well's laboratory has shown that such allosteric inhibitors can be identified and these act by binding at the dimer interface of enzyme (Hardy, Lam et al., 2004).
The biochemical assay was configured using purified caspase 7 at a high enzyme concentration to promote formation of the homodimers and thus facilitate the identification of allosteric inhibitors. The overall goal was to identify reversible inhibitors with better drug-like properties than the currently available set of aspartyl-containing peptidomimetics that covalently bind the active site. Caspase 7 was assayed using the profluorescent substrate Ac-DEVD-AFC. After initiation of the assay with substrate the plates were rapidly read using an automated robotic system (Kalypsys, Inc.) to maintain consistent timing. A kinetic mode of detection was used where the initial rate was collected (estimated final product formation was ~10%). Compounds were screened as a concentration-titration series that ranged from 57 uM to 0.7 nM. Below is the protocol used for caspase 7.
NCGC Assay Protocol Summary:
Caspase 7 was prepared in buffer (50 mM HEPES pH 7.5, 50 mM KCl, 200 mM NaCl, 10 mM DTT, 0.1% CHAPS) at a concentration of 66.6 nM and 3 uL was dispensed to all wells using black solid Kalypsys 1536-well plates. 20 nL of DMSO containing compounds was added using a pin-tool (Kalypsys Inc.) to columns 5-48. Then 20 nL of DMSO solution from a control plate was added to columns 1-4. Controls were: Column 1, 16 point titration with each concentration in duplicate (1:1 dilutions in DMSO; final starting concentration was 57 uM) of the caspase 7 inhibitor Ac-DEVD-CHO (Alexis Biochemicals); Column 2, a 16 point titration with each concentration in duplicate of the free AFC fluorophore prepared in DMSO (Alexis Biochemicals), final starting was 40 uM; Column 3 neutral (DMSO only) control; Column 4: DMSO alone, to serve as a negative control (no substrate was added). Then 1 uL of 20 uM the substrate Ac-DEVD-AFC (Alexis Biochemicals) prepared in the same buffer was dispensed to all wells except columns 2 and 4 and the plates were immediately transferred (< 1 min) to the Viewlux. The plates were then exposed using 405 nm excitation/520 nm emission filters for 4 sec and read at 20 sec intervals for 3 min. Final enzyme concentration was 50 nM and the final substrate concentration was 5 uM.
Concentration-response curves were fitted to the data calculated from slope of the linear regression of fluorescent intensity versus time (the rate). The concentration-effect curves were then classified based on curve quality (r2), response magnitude and degree of measured activity. […] Inconclusive compounds had appreciable concentration-dependent effects on both the measured rate and the interpolated basal fluorescence intensity at the start of the reaction but where the basal fluorescent intensity was marginal (e.g. < 10-fold). Inconclusive compounds also encompass highly fluorescent compounds (>100-fold increases in fluorescent intensities values relative to controls) where artificial concentration-dependent decreases in the rate occurred at high compound concentrations due to fluorescent interferences.
Keywords: Caspase 7, proteases, profluorescent, MLSMR, MLSCN, NIH Roadmap, qHTS, NCGC
Potency is the fitted concentration of half-maximal effect; tags give direction and shape of the fitted curve or compound fluorescence and quenching.

Compound	Potency	activity change, negative = inhibition
CN1C[C@H](C(=O)N[C@]2(C)O[C@@]3(O)[C@@H]4CCCN4C(=O)[C@H](Cc4ccccc4)N3C2=O)C=C2c3cccc4[nH]cc(c34)C[C@H]21	inconclusive: 15.8 µM [fluorescent, side channel, partial curve]	–
CN1CCN(c2ncc3ncc(=O)n(C)c3n2)CC1	inconclusive: 20 µM [fluorescent, side channel, single point]	–
C[C@@]12CC[C@H]3[C@H](CCC4=CC(=O)CC[C@H]43)[C@H]1CC[C@H]2OC1(O)C(=O)c2ccccc2C1=O	–	inactive: -3.1% [at 11.5 µM]
CCCNc1oc(-c2cccc3ccccc23)nc1C#N	inconclusive: 12.6 µM [fluorescent, side channel, partial curve]	–
Oc1c(Cl)c(Cl)cc(Cl)c1Cl	inactive	–
O=C1Nc2ccccc2C2(CCN(CCc3ccc(C(F)(F)F)cc3)CC2)O1	inactive	–
CC(CCC(=O)O)C1CCC2C3CC[C@H]4CC(O)CC[C@@]4(C)C3CC[C@@]12C (some centres undefined)	inconclusive: 20 µM [inhibitor, partial curve]	–
c1ccc(CCN2CCOCC2)nc1	–	inactive: 0.762% [at 11.5 µM]
COc1cc2c(cc1O)C[C@H]1c3c(cc(OC)c(O)c3-2)CCN1C	inconclusive: 31.6 µM [inhibitor, partial curve]	–
CC[N+](C)(CC)CCC[n+]1c(-c2ccccc2)c2cc(N)ccc2c2ccc(N)cc21	inconclusive: 2.51 µM [inhibitor, full curve]	–
O=C1c2ccccc2-c2cccc3cccc1c23	inconclusive: 15.8 µM [fluorescent, partial curve]	–
CN1CC[C@@H]2CN3CCc4cccc(c43)[C@H]2C1	inactive	–
CCCc1cc2c(n1Cc1ccco1)C(C)C1CN(C(=O)c3ccccc3)C(C)(C(=O)OC)C21 (centres undefined)	inconclusive: 25.1 µM [inhibitor, single point]	–
CC1COC2=C1C(=O)C(=O)c1c2ccc2c1CCCC2(C)C (centres undefined)	inconclusive: 25.1 µM [inhibitor, single point]	–
O=c1ccc2cc(O[C@H]3O[C@@H](CO)[C@@H](O)[C@@H](O)[C@@H]3O)c(O)cc2o1	inconclusive: 3.98 µM [fluorescent, side channel, partial curve]	–
COCCCn1c(N)c(C(=O)NCCC(C)C)c2nc3ccccc3nc21	inconclusive: 25.1 µM [fluorescent, side channel, partial curve]	–
COc1cc2c(cc1OC)[C@@]13CCN4C=C5CCO[C@H]6CC(=O)N2[C@@H]1[C@@H]6[C@H]5C[C@H]43	–	inactive: -0.125% [at 11.5 µM]
CC(C)C[C@H]1C(=O)N2CCCC2[C@]2(O)O[C@](NC(=O)[C@@H]3C=C4c5cccc6[nH]cc(c56)CC4N(C)C3)(C(C)C)C(=O)N12 (some centres undefined)	inconclusive: 25.1 µM [fluorescent, side channel, partial curve]	–
CC(C)OC(=O)c1c(N)n(CC2CCCO2)c2nc3ccccc3nc12 (centres undefined)	inconclusive: 12.6 µM [fluorescent, side channel, partial curve]	–
CN1CC=C(c2c[nH]c3ccccc23)CC1	inactive	–

Compound	Potency	activity change, negative = inhibition
CC[C@@]1(O)CC(O)c2c(cc3c(c2O)C(=O)c2c(O)ccc(O)c2C3=O)C1C(=O)OC (some centres undefined)	inactive	–
CCCCn1c(N)c(C(=O)NCCN2CCOCC2)c2nc3ccccc3nc21	inconclusive: 15.8 µM [fluorescent, side channel, partial curve]	–
N#CC(C#N)=Cc1cc(O)c(O)c(O)c1	inactive	–
CN(C)CS/C(N)=N/[C@H](O)C(Cl)(Cl)Cl	–	inactive: -0.0981% [at 11.5 µM]
CN1CCN(C(=O)COc2ccc3ccccc3c2Br)CC1	inconclusive: 3.98 µM [inhibitor, single point]	–
N[C@@H](Cc1cc(O)c(O)cc1O)C(=O)O	inconclusive: 12.6 µM [quencher, side channel, partial curve]	–
CC(=O)N1CCC2(CC1)CC(=O)c1cc(OCC(=O)N3CCN(C)CC3)ccc1O2	inconclusive: 25.1 µM [inhibitor, single point]	–
CCOC(=O)c1c(N)n(Cc2ccco2)c2nc3ccccc3nc12	inconclusive: 12.6 µM [fluorescent, side channel, partial curve]	–
CCC(C)NC(=O)c1c(N)n(CCCOC)c2nc3ccccc3nc12 (centres undefined)	inconclusive: 12.6 µM [fluorescent, side channel, partial curve]	–
CCCCn1c(N)c(C(=O)OCC2CCCO2)c2nc3ccccc3nc21 (centres undefined)	inconclusive: 15.8 µM [fluorescent, side channel, partial curve]	–
c1ccc(Nc2ccc(Nc3ccccc3)cc2)cc1	inactive	–
CC1O[C@@H](OC2CC[C@@]3(C=O)C4CC[C@]5(C)C(C6=CC(=O)OC6)CC[C@@]5(O)C4CC[C@]3(O)C2)C(O)C(O)C1O (some centres undefined)	inactive	–
O=c1ccc2cc(OC3OC(CO)C(O)C(O)C3O)c(O)cc2o1 (centres undefined)	inconclusive: 3.98 µM [fluorescent, side channel, full curve]	–
C[C@H](CCC(=O)O)[C@H]1CC[C@@H]2[C@H]3CC[C@H]4C[C@@H](O)CC[C@@]4(C)[C@H]3CC[C@]21C	inconclusive: 15.8 µM [inhibitor, partial curve]	–
CCn1nc(-c2ccccc2)nc2c(=O)n(C)c(=O)nc1-2	inconclusive: 1.26 µM [inhibitor, full curve]	–
CC(C)(C)c1cc(C=C(C#N)C#N)cc(C(C)(C)C)c1O	inactive	–
COCCNC(=O)c1c(NC(=O)c2ccco2)n(Cc2ccccc2)c2nc3ccccc3nc12	inconclusive: 15.8 µM [fluorescent, partial curve]	–
CC(C)c1ccc(C(c2c(O)c3ccccc3oc2=O)c2c(O)c3ccccc3oc2=O)cc1	inconclusive: 5.01 µM [inhibitor, single point]	–
CCOc1ccc2[nH]c(=O)c(CN(CCO)C3(c4nnnn4C4CCCCC4)CCCCC3)cc2c1	inconclusive: 31.6 µM [inhibitor, single point]	–

Reference: PubChem BioAssay AID889 (National Center for Advancing Translational Sciences (NCATS), 2007)
